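Five compound concentrations were applied to cells in 96-well plates for 48 hours; endpoints were derived by simple linear interpolation of the resulting dose-response curve. Here, GI50 denotes the concentration required for 50% inhibition of growth. Definition used: TGI = concentration required for complete inhibition of growth.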
Test system: NCI-H322M lung
Experiment: NCI-60 cell line screen, 48 h

Compound	TGI	GI50
CCCCOc1ccc2c(c1)CC[C@@H]1[C@@H]2CC[C@]2(C)C(=O)N(CCCC)C(=O)C[C@@H]12	> 100 µM	–
O=C(Nc1ccc(Sc2ccc(N=Nc3c(O)c(S(=O)(=O)O)cc4cc(S(=O)(=O)O)ccc34)cc2)cc1)c1ccc(N=Nc2c(O)c(S(=O)(=O)O)cc3cc(S(=O)(=O)O)ccc23)cc1	> 100 µM	–
CN(C(=O)C12C3C4C1C1C2C3C41C(O)C(C)(C)C)C(C)(C)C (stereo not drawn)	> 100 µM	–
ClC1c2ccccc2C2(c3ccccc3)OOC1(c1ccccc1)O2 (stereo not drawn)	17.8 µM	–
CC1(C)CN=CC(C)(OCc2ccccc2)C(=O)NC(C)(C)CN=CC(C)(OCc2ccccc2)C(=O)N1 (stereo not drawn)	> 10 µM	–
O=C(O)c1cn(C2CC2)c2cc(N3CCNCC3)c(F)cc2c1=O	> 100 µM	> 100 µM
N#Cc1cc([N+](=O)[O-])ccc1NC(=O)C(=O)C(C(=O)c1ccc2ccccc2c1)C1OCc2ccccc21 (stereo not drawn)	23.5 µM	–
CC(=O)c1[nH]c(Nc2ccc(C)cc2)c(C(=S)Nc2ccccc2)c1N	40.7 µM	–
COc1ccc(OC(C)C(=O)O)c2c1CCCC2=O (stereo not drawn)	> 100 µM	–
Oc1ccc2ccccc2c1N=Nc1ccc(Cl)cc1	> 100 µM	–
O=C1CCSC(=S)N1c1ccc(Br)c(Cl)c1	83.4 µM	–
COc1ccccc1NC(=O)C1=C(C)NC(C)=C(C(=O)Nc2ccccc2OC)C1c1cccc2ccccc12	> 100 µM	–
CC(=O)N1C(Nc2cccc3nc(C)ccc23)CCN1c1ccccc1 (stereo not drawn)	> 10 µM	–
c1ccc2c(c1)Sc1ccccc1N2C1CN2CCC1CC2 (stereo not drawn)	32.5 µM	–
CCOC(=O)C1=C(c2ccccc2)C12N(Cc1ccccc1)C(=O)C2(c1ccccc1)c1ccccc1 (stereo not drawn)	> 100 µM	–
O=C(Nc1ccc(Oc2ccc(NC(=O)Nc3ccc([N+](=O)[O-])cc3)cc2)cc1)Nc1ccc([N+](=O)[O-])cc1	> 100 µM	2.44 µM
CN1CCN(c2ccc3nc(-c4[nH]ncc4Nc4ncnc5c4OCCCN5)[nH]c3c2)CC1	0.0857 µM	0.0149 µM
COc1ccc([C@H]2c3cc4c(cc3OC(O)(CO)[C@H]2C(=O)O)OCO4)c(OC)c1 (stereo partly drawn) (tested in a mixture with another compound)	> 100 µM	–
Cc1ccc(C#CS(=O)(=O)C(F)(F)F)cc1	> 100 µM	–
CC(=O)c1ccc2c3c1O[C@H]1c4[nH]c5ccccc5c4C[C@@]4(O)[C@@H](C2)N(CC2CC2)CC[C@]314	17 µM	–
COc1ccc(-n2cc(-c3cc(OC)c(OC)c(OC)c3)[nH]c2=S)cc1Cl	> 100 µM	54.4 µM
O=C(Cc1ccc(Nc2ccnc(C(F)(F)F)c2)cc1)Nc1cc(Cl)ccc1O	66.3 µM	14.7 µM
O=C(c1ccccc1O)c1cc(-c2ncc3c(=O)c4ccccc4oc3n2)c(-c2ccccc2O)[nH]c1=O	> 100 µM	–

Compound	TGI	GI50
COc1ccc(C2=C(Cl)c3cc(OC)c(OC)cc3C2)cc1OC	> 100 µM	–
COc1ccc(C(=O)/C=C/c2cc(-c3ccc4c(c3)OCO4)n[nH]2)cc1OC	7.3 µM	2.48 µM
CCOC1NC(/N=C/c2ccc(OC)cc2)=C(C#N)C1C#N (stereo not drawn)	> 100 µM	–
Cc1c2cccc-2c(OCCOC(=O)n2ccnc2)cc2c1[nH]c1ccccc12	24.5 µM	–
O=C1C=C(O)c2c(O)ccc(O)c2C1=O	> 100 µM	–
CCCCCCCCNC(C)C(O)c1ccc(SC(C)C)cc1 (stereo not drawn)	24.7 µM	11.7 µM
CCCCCCCCCCC[C@@H](C[C@H]1OC(=O)[C@H]1CCCCCC)OC(=O)[C@@H](CC(C)C)NC=O	> 100 µM	56.3 µM
O=C(Nc1ccc(Nc2ccncc2)cc1)c1ccc(Nc2ccnc3ccc([N+](=O)[O-])cc23)cc1[N+](=O)[O-]	> 95.7 µM	28.5 µM
CC(=O)OCC1OC(n2c(N)c(C#N)c(-c3cccc(Cl)c3)c(C#N)c2=S)C(OC(C)=O)C(OC(C)=O)C1OC(C)=O (stereo not drawn)	> 100 µM	–
O=S1c2ccccc2NC(c2ccc3ccccc3c2)CC1c1ccccc1 (stereo not drawn)	> 100 µM	–
CC(=O)OCC1OC(SC2=NC(=O)/C(=C/c3ccccc3)S2)C(OC(C)=O)C(OC(C)=O)C1OC(C)=O (stereo not drawn)	> 100 µM	–
CCOC(=O)c1ccccc1SC(C[N+](=O)[O-])c1ccccc1 (stereo not drawn)	30.4 µM	15.9 µM
CC[C@H]1CN(C)[C@H]2Cc3c([nH]c4ccccc34)C(=O)C[C@H]1C2C(=O)OC (stereo partly drawn)	> 100 µM	–
O=C1CCCC(O)=C1SC1=C(O)CCCC1=O	> 100 µM	–
CNC(=O)c1cc(Oc2ccc3nc(N[C@@H]4CCCC[C@H]4O)sc3c2)ccn1	> 100 µM	> 100 µM
Cc1cc(NCc2cc(Nc3ccnc4cc(Cl)ccc34)ccc2F)nc(N2CCSCC2)n1	7.75 µM	2.16 µM
O=C(/C=C/c1ccccc1)Oc1cccc(Br)c1	> 100 µM	–
C=CCOCn1ccc(N)nc1=O	> 100 µM	–
COc1ccc(-c2nc(-c3ccccn3)c(-c3ccccn3)n2CC(C)C)cc1OC1CCCC1	> 165 µM	21.4 µM
NC(CCc1ncc(-c2ccccc2)s1)C(=O)O (stereo not drawn)	> 100 µM	–
CCOC(=O)C(=O)Nc1ccccc1OCC	> 100 µM	–
COc1cnc2c(c1)C(=O)c1c-2n(CCCNCCN2CCOCC2)c(=O)c2cc([N+](=O)[O-])ccc12	1.71 µM	0.279 µM
O=Cc1c(Br)[nH]c2ccccc12	> 100 µM	–

Compound	TGI	GI50
CC(=O)O[C@H]1C[C@](C)(O)[C@@]23CC([C@@H](OC(=O)C(C)(C)O)[C@@H](OC(C)=O)C2(COC(=O)c2ccccc2)[C@H]1OC(C)=O)C(C)(C)O3 (stereo partly drawn)	> 100 µM	–
NC1=Nc2ccccc2Sc2nc3ccccc3n21	> 100 µM	–
C[C@]12CC[C@H](O)CC1=CC[C@@H]1[C@@H]2CC[C@]2(C)C(=O)/C(=C/c3ccc([N+](=O)[O-])cc3)C[C@@H]12	41.3 µM	–
O=C1O[C@H]2C3C4CCC(C4[C@@H]2I)[C@H]13 (stereo partly drawn)	> 100 µM	–
COc1cc([C@@H]2c3cc4c(cc3[C@@H](c3c(O)cc(O)c5c3O[C@H](c3ccc(O)c(O)c3)[C@H](OC(=O)c3cc(O)c(O)c(O)c3)C5)[C@H]3COC(=O)[C@H]23)OCO4)cc(OC)c1O	> 100 µM	–
COc1cc(OC)c(F)c(COc2cnc(Nc3cnn(CCO)c3)nc2)c1F	> 100 µM	1.97 µM
CC1=CC(=O)/C(=C/n2c(=S)[nH]c3cc(C)ccc32)C(=O)O1	> 100 µM	–
CC[C@H](C)[C@H](NC(=O)NC(C)(C)C)C(=O)N(C)[C@H](C[C@@H](OC(C)=O)c1nc(C(=O)N[C@@H](Cc2ccccc2)C[C@H](C)C(=O)OC)cs1)C(C)C	> 25 µM	1.31 µM
C[N+]1([O-])[C@H]2CC(OC(=O)[C@H](CO)c3ccccc3)C[C@H]1[C@H]1O[C@H]12 (stereo partly drawn)	> 100 µM	–
CN(C)CC1CCCc2ccccc2C1=O (stereo not drawn)	26.6 µM	–
Cc1ccc(/C=C/C(=O)c2ccc([N+](=O)[O-])cc2)cc1	> 100 µM	–
CN1C=COC1N=C1CCCCC1 (stereo not drawn)	> 100 µM	–
COc1ccc(CCCN2c3ccccc3Sc3ccccc32)cc1	> 100 µM	–
CCC(=O)N1C(=O)C(CC)(CC)C(=O)N1C(=O)CC	> 100 µM	–
Cc1ccc(NC(=O)/C(=N/NC(=O)C[N+](C)(C)C)c2nc3ccccc3[nH]c2=O)cc1	> 100 µM	–
CN(C)C(=S)/N=c1\ss/c(=N\C(=S)N(C)C)n1Cc1ccco1	> 100 µM	–
COc1cc(/C=C/C(=N\NC(=S)NN)c2sc(NNC(C)=O)nc2C)ccc1O	> 100 µM	–
O=C1CC(C(COCc2ccccc2)OCc2ccccc2)CC(=O)N1 (stereo not drawn)	> 100 µM	–
O=C1CCCCN1C(=O)c1ccc([N+](=O)[O-])cc1	> 100 µM	–
O=C(NN1C(=O)C(Cl)C1c1ccccc1Cl)c1ccccc1O (stereo not drawn)	> 100 µM	–
COc1ccc(N=Nc2c(-c3ccccc3)nn(C(=O)CC(=O)Nc3ccccc3Cl)c2-c2ccccc2)cc1	> 100 µM	–

Reference: PubChem BioAssay (NCI)
